The test system of the assay is Clostridium perfringens (9 isolated strains). Type of assay: cell-based.

These results are taken from US4886667A, “External preparation composition” (priority 1985, dated 1989).

Like-named read-outs stand apart in the source and are kept apart here.

Regarding `CN(C)[C@@H]1C(=O)C(C(N)=O)=C(O)[C@@]2(O)C(=O)C3=C(O)c4c(O)cccc4[C@@](C)(O)[C@H]3C[C@@H]12` [R, Tetracycline], the “Cumulation percent of MIC” value by setting is: (MIC 0.39 μg/ml) 22%; (MIC 0.78 μg/ml) 33%. In the case of `CC1=C(C(=O)O)N2C(=O)[C@@H](NC(=O)[C@H](N)c3ccccc3)[C@H]2SC1` [S, Cefalexin], the “Cumulation percent of MIC” value (MIC 100 μg/ml) was 100%.
